17 molecules from the supplement of paper PMC9446081 can be followed below.

In all, about 39,000 compounds went through this assay and about 220 (0.56%) showed activity. The list shows a part of the results.
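Also: static incubation at 37 °C against the wild-type strain, values averaged over two biological replicates.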

For the test, the system named is Escherichia coli K-12 BW25113. In words: relative growth (OD600 normalised to plate interquartile mean) (fraction); higher = less growth inhibition, active = 0.2 or less. The following applies: 50 µM; LB; incubation time: overnight (16-24 h).
For the molecule `C[C@@H]1CN([C@H](C)CO)C(=O)c2cc(C3=CCCCC3)cnc2O[C@H]1CN(C)S(=O)(=O)c1cn(C)cn1`, the relative growth is inactive: 1.01.

Take `CC(C)NC(=O)Nc1ccc2c(c1)C(=O)N([C@@H](C)CO)C[C@@H](C)[C@H](CN(C)Cc1ccc(-c3ccccc3)cc1)O2`: the relative growth is inactive: 1.04.

In the case of `Cc1noc(C)c1NC(=O)Nc1ccc2c(c1)C(=O)N([C@@H](C)CO)C[C@H](C)[C@H](CN(C)C(=O)NC1CCCCC1)OCCCC[C@H](C)O2`, the relative growth was inactive: 1.03.

As to `C[C@H](CO)N1C[C@H](C)[C@@H](CN(C)C(=O)Cc2cccnc2)Oc2ncc(C#Cc3ccccc3F)cc2C1=O`, the relative growth is inactive: 1.01.

Turning to `Nc1ncnc(NCc2cccnc2)c1[N+](=O)[O-]`, the relative growth was inactive: 0.98.

Regarding `Cc1noc(C)c1S(=O)(=O)Nc1ccc2c(c1)C(=O)N([C@H](C)CO)C[C@H](C)[C@@H](CN(C)S(C)(=O)=O)O2`, the relative growth is inactive: 0.988.

In the case of `C[C@@H]1CCCCO[C@@H](CN(C)S(=O)(=O)c2ccc(F)cc2)[C@H](C)CN([C@@H](C)CO)C(=O)c2cc(NC(=O)C3CCCCC3)ccc2O1`, the relative growth was inactive: 1.02.

In the case of `C[C@@H]1CN([C@H](C)CO)C(=O)Cc2cc(NC(=O)CCC(F)(F)F)ccc2O[C@@H]1CN(C)S(=O)(=O)c1cn(C)cn1`, the relative growth is inactive: 0.982.

With `CNC(=O)CN1CCO[C@H]2CN(C(=O)c3cnccn3)C[C@@H]21`, the relative growth is inactive: 1.

For `Cn1c(=O)c2cc(S(=O)(=O)NCCC(=O)NC3CCCC3)ccc2n(C)c1=O`, the relative growth was inactive: 1.02.

On to `CCS(=O)(=O)N1C[C@]2(CCN(CC2)S(=O)(=O)c2cn(cn2)C)c2c(n(c3cc(ccc23)OC)C)[C@@H]1CO`, for which the relative growth is inactive: 1.

For the molecule `CN1CCc2onc(Cn3ccnc3)c2C1`, the relative growth is inactive: 1.

On to `Cc1ccc(S(=O)(=O)N(C)C[C@@H]2OCCCC[C@H](C)Oc3ccc(NC(=O)C4CCCCC4)cc3C(=O)N([C@H](C)CO)C[C@H]2C)cc1`, for which the relative growth was inactive: 1.01.

Turning to `C[C@@H]1CN([C@@H](C)CO)C(=O)Cc2cc(NC(=O)CCCCCC(=O)Nc3ccccc3N)ccc2O[C@@H]1CN(C)C(=O)Nc1ccc(C(F)(F)F)cc1`, the relative growth was inactive: 1.02.

On to `C[C@@H]1CN([C@@H](C)CO)C(=O)c2cc(NC(=O)Nc3ccc(C(F)(F)F)cc3)ccc2O[C@@H](C)CCCCO[C@@H]1CN(C)C(=O)Nc1ccccc1`, for which the relative growth was inactive: 1.

`COCC(=O)N(C)C[C@@H]1Oc2cc(C#CCC3CCCC3)ccc2S(=O)(=O)N([C@@H](C)CO)C[C@@H]1C`: the relative growth was inactive: 0.973.

Turning to `COc1ccc(S(=O)(=O)Nc2ccc3c(c2)C(=O)N([C@H](C)CO)C[C@@H](C)[C@@H](CN(C)Cc2ccccc2)OCCCC[C@@H](C)O3)cc1`, the relative growth was inactive: 0.988.
